In test [1] the test system is MDA-MB 435 breast cancer cells expressing constitutively activated integrin αvβ3D723R. Kind of test: Treatment of established lung metastasis in vivo. Details: species or system mouse. The conditions noted are these: 40 μg/dose i.v. day 7, 9, 11, 14, 16, 18; day 19; P<0.001 Mann-Whitney. As to the method:
FIGS. 5A, 5B, 5C. ScFvs Bc-12 and Bc-15 prevent hematogenous breast cancer metastasis. (A) Left: Lungs of female SCID mice 32 days after i.v. injection with 1×10^5 BMS human breast cancer cells. The mice were treated with 50 μg Bc-12 or Bc-15 in 100 μl PBS (i.v.) on days 1, 2, 3 and 4. Controls received PBS only. Right: Numbers of lung surface metastases for each animal, horizontal lines indicate the median number of metastases per group. […] (B) Left: Histological sections of the above mouse lungs, stained with hematoxylin/eosin. Metastases were counted in six sets of three consecutive sections separated by 140 μm for each lung. Right: Number of metastases counted in sections of individual lungs, horizontal lines indicate median number of metastases per animal group. […] (C) Effect of Bc-15 treatment on established breast cancer metastasis in the lungs. Female SCID mice were injected i.v. with 5×10^5 DsRed2-tagged MDA-MB 435 breast cancer cells expressing constitutively activated integrin αvβ3D723R. […] Metastatic foci were enumerated by fluorescence microscopy on day 19. […]
To treat mice with established metastatic disease, 5×10^5 DsRed2 tagged MDA-MB 435 cells expressing constitutively activated αvβ3D723R were injected intravenously. […] The mice were euthanized on day 19 and lung metastases counted under a fluorescence microscope. […]

Test [2] concerns BMS human breast cancer cells. Kind of test: Tumor cell adhesion under stationary conditions. The conditions noted are these: 3 μM scFv. Type of test: cell-based. On the procedure: FIGS. 3A, 3B, 3C, 3D, 3E. scFv Bc-12 and Bc-15 inhibit αvβ3 mediated adhesive breast cancer cell functions. (A) Adhesion of BMS human breast cancer cells to fibrinogen (Fg), vitronectin (VN) or type I collagen (Col I) in the absence or presence of 3 μM Bc-12, Bc-15 or their RGE mutants Mut-12, Mut-15, compared to 200 μM GRGDSPK peptide (SEQ ID NO: 11). Protein coating concentrations: 10 μg/ml (VN, Col I) or 20 μg/ml (Fg). Adhesion time: 30 min at 37° C. (B) Effect of scFvs on haptotactic BMS cell migration toward a fibrinogen substrate (16 hrs at 37° C. in transwell chambers with or without 2 μM Bc-12, Bc-15 or their RGE mutants Mut-12 or Mut-15, compared to 200 μM GRGDSPK peptide) (SEQ ID NO: 11). (C) Effect of scFvs on breast cancer cell arrest during blood flow. Metastatic BMS cells, labeled with hydroethidine, were suspended in human blood (anticoagulated with 50 nM PPACK) and perfused over a collagen I matrix at a venous wall shear rate of 50 s^−1. Under these conditions, breast cancer cells arrest by αvβ3 mediated binding to adherent, thrombus forming platelets. Tumor cell adhesion was quantified by image acquisition at 30 predefined positions during blood flow. Left: representative images of platelet signal (thrombi, green fluorescence) and tumor cell signal (red fluorescence) at identical x,y positions. Right: Number of arrested tumor cells in the presence of 3 μM non-function blocking anti αv scFv Bc-20 or function blocking anti αvβ3 scFvs Bc-12 or Bc-15. (D) scFv Bc-15 is internalized by human breast cancer cells and reduces cell proliferation. Left: confocal images of BMS cells incubated for 4 hrs with FITC-Bc-15 at 4° C. (binding) versus 37° C. (allowing internalization). Right: Phase contrast images of BMS cell cultures 4 days after seeding in the presence of 2 μM RGE containing scFv Mut-15, or RGD containing Bc-15. […]
Cell adhesion and migration. Tumor cell adhesion under stationary conditions was analyzed as detailed earlier (19). […] Haptotactic tumor cell migration toward fibrinogen was analyzed in transwell chambers as detailed earlier. […]

B1: Bc-15: patient derived human scFv antibody against activated αvβ3 with RGD motif in CDR-H3; cDNA ATCC PTA-6304 (protein)
scFv: MAQVQLVQSGAEVKEPGSSVKVSCKASGGTFSSYAIYWVRQAPGQGLEWMGWINPDSGDTNSAQQFQGRVTMTRDTSISTAYMELSRLRSDDTAMYYCARPPRGDGPDYWGQGTLVTVSSGGGGGS[letters of about 100 residues not shown]RGLGGLVDYKDDDDK
B1: in test [1], the “number of metastatic foci within the lung tissue versus Mut-15” value is listed as “significantly fewer metastases than mice treated with Mut-15”. In test [2], the “adhesion to collagen type I” value was “no effect”; the attachment to vitronectin entry is “inhibited by Bc-12 and Bc-15, but to a lesser degree”. Also, in test [2] (30 min at 37° C.), the “adhesion to immobilized fibrinogen” value is “efficiently inhibited”.
